Results as given in ChEMBL document CHEMBL4888484, “Replenishing the malaria drug discovery pipeline: Screening and hit evaluation of the MMV Hit Generation Library 1 (HGL1) against asexual blood stage Plasmodium falciparum ,using a nano luciferase reporter read-out” (2022).
The whole screen tested about 150,000 compounds, of which about 540 (0.36%) showed an effect of 50% or more. The list shows a part of the results.

test system: Plasmodium falciparum; assay: Primary screen in NF54 nanoGlo assay, in single point, at 2uM, 72h; a lower Z score goes with more inhibition; assay type: functional, Erythrocyte; conditions: timepoint 72 hour

| SMILES | % Inhibition | Z score |
| --- | --- | --- |
| C[C@@H](c1ccccc1)n1nccc1NC(=O)NCCN1CCCCC1=O | -1% | 0.14 |
| Cc1ccccc1N1C[C@@H](C(=O)Nc2ccc(S(=O)(=O)N3CCOCC3)cc2)CC1=O | 15% | -1.84 |
| Fc1cccc(Cn2ncc3[nH]c(-c4cccc5nonc45)nc32)c1 | 6% | -0.98 |
| Cc1cccc(NC(=O)CN2CCN(C(=O)c3cc4c(s3)CCC4)CC2)c1C | -3% | 0.44 |
| COc1ccc(NC(=O)C2CC3CCC2C3)cn1 (stereo not given) | -4% | 0.62 |
| O=C(NCc1nc(-c2cc[nH]c(=O)c2)no1)c1cccnc1 | -18% | 3.02 |
| CCCc1nn(-c2cccc(F)c2)c(N2CCN(CC)CC2)c1CN(Cc1ccccc1F)C(C)C | -5% | 0.45 |
| CN(CCCOCc1ccccc1)CC1(C)COC1 | -13% | 2.18 |
| Cc1ccc(N2CCN(c3nccn4nc(-c5ccccc5C)cc34)CC2)cc1 | -9% | 1.16 |
| N#Cc1nccnc1N1CC(Cn2nc(C3CC3)ccc2=O)C1 | -19% | 2.72 |
| COC(=O)c1cccc(C#Cc2cccc(NC(=O)Cn3ccc(=O)[nH]c3=O)c2)c1 | 7% | -0.98 |
| C=C1C(C(=O)N2CCN(c3ccccc3)CC2)[C@H]1C(=O)N1CCN(c2ccccc2)CC1 (stereo not given in full) | 7% | -0.63 |
| C[C@H](Oc1ccccc1)C(=O)Nc1nnc(CCCc2ccccc2)s1 | -8% | 1.54 |
| N[C@H]1C[C@@H](c2cc(N3CCN(C4CCCCC4)CC3)nc(N3CCCC3)n2)C1 | 56% | -8.12 |
| CCOc1cc([C@H]2Nc3ccccc3C(=O)N2c2ccc(C)cc2)ccc1OCc1ccc(F)cc1 | -5% | 0.59 |
| C[C@@H]1NC(=O)N(C2CCN(Cc3ccccc3)CC2)C1=O | -3% | 0.44 |
| CCNC(=O)c1cccc(C)c1OCCc1scnc1C | -8% | 0.89 |
| Cc1nc(C)c(CCNC(=O)NC2CC3CC2C2CCCC32)s1 (stereo not given) | -19% | 2 |
| Cc1cc(C)n(Cc2nnc(N3CCC(C(C)(C)C)C3)n2CC2CCCO2)n1 (stereo not given) | -5% | 0.82 |
| O=C(c1cnc2ccccc2n1)N1CC(Nc2ccncn2)C1 | -20% | 2.34 |
| COc1ncccc1-c1nc(CC2CCN(C)CC2)nn1CC(F)(F)F | 8% | -1.27 |
| c1cc(Nc2ccc3nnnn3n2)cc(N2CCCCCC2)c1 | 10% | -1.22 |

| SMILES | % Inhibition | Z score |
| --- | --- | --- |
| CN1CN(C(=O)c2snnc2C2CC2)CC1=O | -10% | 1.5 |
| O=C(CCc1nc2ccccc2c(=O)[nH]1)Nc1ccncc1 | -12% | 1.65 |
| CC1CC(c2ccccc2)C(C)N1C(=O)Cn1cccn1 (stereo not given) | 2% | -0.39 |
| N#Cc1cnc(NC[C@H]2CCCc3cccnc32)c(F)c1 | -15% | 2.44 |
| O[C@H](COc1cccc2[nH]ccc12)Cn1nnc(-c2cccs2)n1 | -12% | 1.22 |
| Nc1nnc(-c2noc(-c3ccccc3)n2)o1 | -8% | 0.91 |
| CCn1ncc2cc(C(=O)N3CCC[C@H]3c3ncon3)c(C)nc21 | -4% | 0.78 |
| c1cc(CN2CCC(OC[C@H]3CCCO3)CC2)ccn1 | -3% | 0.26 |
| COCCc1noc(CNC(=O)[C@@H]2CCc3ccccc32)n1 | -5% | 0.76 |
| C[C@@H](CCc1cccc(F)c1)C(=O)NS(C)(=O)=O | 16% | -2.3 |
| Cc1c(C(=O)N2CCCC2)oc2ccc3c(c12)[C@@H](O)CC1(CCCCC1)O3 | 2% | -0.33 |
| Cc1c(Cl)cc(NC(=O)NCCO)cc1Cl | 6% | -0.89 |
| CN(Cc1cnc(N(C)CC(=O)O)nc1)CC1CCCC1 | 4% | -0.64 |
| CCC(C)(C)NC(=O)c1ccc(OC)cc1OC | -1% | 0.14 |
| CC(C)[C@H](OC(=O)n1ccnc1)C(=O)OC(C)(C)C | 39% | -5.02 |
| CCc1cccc(Nc2c(C(=O)N3CCCCCC3)cnc3nc(C)ccc23)c1 | -7% | 1.22 |
| CCc1ccccc1C(=O)N(Cc1ccccn1)C1CCNCC1 | 6% | -0.92 |
| Cc1cc(C)c(CN2CCC(N3CCC[C@H](C(=O)NC4CC4)C3)CC2)cc1C | -2% | 0.36 |
| CC[C@@H](CO)N1CCN(C(=O)C(C)(C)OC)CC1 | -18% | 2.28 |
| CCc1oc(C(=O)N(C)Cc2cc(COC)[nH]n2)cc1CN(CC)CC | -1% | 0.2 |
| O=C(c1csc2cncn12)N1CCCC12CCC2 | -2% | 0.44 |
| COc1ccc(C(=O)N2CCCCC[C@@H]2CN2CCOCC2)cc1 | -9% | 1.48 |

| SMILES | % Inhibition | Z score |
| --- | --- | --- |
| O=C(NCc1ccc2c(c1)OCO2)N1CC(Oc2cccc(C(F)(F)F)n2)C1 | -6% | 1.06 |
| COc1ccccc1N1CCN(CC(=O)Nc2c3c(nc4ccccc24)N(c2cccc(C)c2)CC3)CC1 | 39% | -4.99 |
| Cn1nccc1C(=O)N1CC[C@@H](n2c(=O)n(C)c3cccnc32)C1 | 0% | -0.09 |
| CC(=O)NC[C@H](O)c1ccc(-c2ccco2)cc1 | 1% | -0.1 |
| COc1ccccc1C(C)(C)c1noc(C2C[C@H]3C[C@@H](N)[C@H]3C2)n1 (stereo not given in full) | 11% | -1.69 |
| CCOC(=O)C1=C(C(=O)OCC)SC(=C2C(=S)C(C)(C)N(C(=O)CN3C(=O)c4ccccc4C3=O)c3c(OC)cccc32)S1 | -8% | 1.36 |
| Cc1ccc(C(=O)Nc2ccc(N3CCCN(C(=O)CC(C)C)CC3)c(C(=O)NCc3ccc(F)cc3)c2)cc1 | 5% | -0.78 |
| C#CCC(NC(=O)N1CC(C)OCC1C)c1ccccc1 (stereo not given) | 6% | -0.95 |
| O=C(c1c(F)cccc1OC(F)F)N1CCCc2n[nH]cc21 | -2% | 0.28 |
| CCOc1ccccc1CNC(=O)c1nc(Nc2ccccc2)c2ccccc2n1 | 1% | -0.22 |
| CCN(Cc1ccc2ccccc2n1)C(=O)Cc1cc(C)on1 | 0% | 0.02 |
| CO[C@H]1CCN(c2ccc(NC(=O)CCc3c(Cl)cccc3Cl)cc2)C1 | -17% | 2.18 |
| O=C1N[C@H]2CCC[C@@H]1CN(Cc1ccc(CN3CCCCC3)s1)C2 | 0% | 0.06 |
| Cc1cc(C(N)=O)c(-c2cccc(C(=O)N[C@H]3CCC(=O)N(C)C3)c2)nc1C | -22% | 1.96 |
| O=C(Cc1ccccc1F)N1CCc2[nH]nc(C(=O)N3CCCC3)c2C1 | -5% | 0.82 |
| CCn1cc(-c2ccc(N3CCOCC3)cc2)cc1C#N | -4% | 0.63 |
| COC(=O)c1sc(NCC2CC3CCCC3O2)nc1C (stereo not given) | -18% | 2.09 |
| Cc1ccoc1CNC(=O)N1CC(N2CCOCC2)CC1C (stereo not given) | -9% | 1.64 |
| Cc1noc(C)c1CO[C@H]1CCOC[C@H]1NC(=O)c1ccnnc1 | -7% | 1.09 |
| Cn1cnc([C@H]2CN(C(=O)NC(C3CCC3)C3CCC3)C[C@@H]2N)c1 | -2% | 0.43 |
| COc1cccc(Cn2cccc(S(=O)(=O)N3CCCC3)c2=O)c1 | -16% | 2.11 |
| CCN1CC[C@H](NC(=O)c2cccnc2)C1=O | -7% | 1.04 |

| SMILES | % Inhibition | Z score |
| --- | --- | --- |
| CCCC(C)(C)NC(=O)c1c[nH]c(=O)c(Cl)c1 | 6% | -0.76 |
| Cc1cc(OCC(=O)NCCn2nc(-n3cncn3)ccc2=O)cc(C)c1Cl | -4% | 0.73 |
| CC(C)(C)c1cc(CN2CCn3cncc3C2)n[nH]1 | -10% | 1.3 |
| C1CCC(Cc2noc([C@H]3CCCc4[nH]nnc43)n2)C1 | -16% | 2.24 |
| COc1ccc(N2CCN(C(=O)COc3ccc(Cl)cc3)[C@@H](C)C2=O)cc1 | -12% | 2.02 |
| CC(C)(C)OC(=O)N1CCC(CC(=O)NCCOCCn2cccn2)CC1 | -2% | 0.37 |
| CCOC1CC(N(C)C(=O)c2c[nH]c3cccnc23)C12CCCCC2 (stereo not given) | 4% | -0.78 |
| O=C(C[C@H]1C(=O)NCCN1Cc1ccccc1)NC1(CO)CCCC1 | -9% | 1.13 |
| O=C(Nc1ccnn1C1CCN(c2ccnc3ccccc23)CC1)[C@H]1CCOC1 | -13% | 1.42 |
| COc1ccccc1CN[C@H](C(=O)OC(C)(C)C)c1ccccc1 | -3% | 0.28 |
| Cc1ccc(S(=O)(=O)CC(=O)N2CCCc3ccccc32)cc1 | -1% | 0.17 |
| Cc1ccc(C)c(CC(=O)N2CCC(N3CC=CC3)CC2)c1 | -10% | 1.34 |
| OCC1(CCCc2ccccc2)CCN(CC#Cc2ccccc2)CC1 | -14% | 1.6 |
| Cc1ccc2c(c1C)N(S(=O)(=O)c1ccoc1)CCC2 | 11% | -1.18 |
| O=C1COCC(=O)N1Cc1cccc(Br)c1 | -5% | 0.88 |
| CCn1cc(CC(=O)NCc2cc(F)cc(F)c2)c2cccnc21 | -17% | 1.96 |
| CCCn1nc(C(=O)N(CCC(C)C)CCC(C)C)ccc1=O | -10% | 0.85 |
| CCn1nccc1C(=O)Nc1ccc2c(c1)OCO2 | -15% | 2.63 |
| CCC(=O)Nc1cc(NC(=O)N(CC)CC2CCOCC2)ccc1OC | -8% | 1.44 |
